This is an account of results in EP4755449A2.

What all share (assay): SPR 25C
Assay [1] concerns the target cyno Fc gamma RIIIaS extracellular domain, His-tagged (cynomolgus monkey) (UniProt Q8SPW2).
Assay [2] addresses cyno Fc gamma RIIa1 extracellular domain, His-tagged (cynomolgus monkey).
For assay [3], the target named is cyno Fc gamma RIIa2 extracellular domain, His-tagged (cynomolgus monkey).
The target of assay [4] is cyno Fc gamma RIIa3 extracellular domain, His-tagged (cynomolgus monkey).
In assay [5] the target is cyno Fc gamma RIIb extracellular domain, His-tagged (cynomolgus monkey).
Chain of cyno Fc gamma RIIb extracellular domain, His-tagged (cynomolgus monkey) (chain, as listed by the source): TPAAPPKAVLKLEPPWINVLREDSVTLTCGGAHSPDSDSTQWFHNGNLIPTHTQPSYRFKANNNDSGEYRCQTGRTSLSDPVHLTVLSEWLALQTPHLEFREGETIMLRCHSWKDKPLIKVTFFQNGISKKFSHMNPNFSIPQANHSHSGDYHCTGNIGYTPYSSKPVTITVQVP

Chain of UniProt Q8SPW2 (Q8SPW2 other isoform, or with tags, fused parts or gaps): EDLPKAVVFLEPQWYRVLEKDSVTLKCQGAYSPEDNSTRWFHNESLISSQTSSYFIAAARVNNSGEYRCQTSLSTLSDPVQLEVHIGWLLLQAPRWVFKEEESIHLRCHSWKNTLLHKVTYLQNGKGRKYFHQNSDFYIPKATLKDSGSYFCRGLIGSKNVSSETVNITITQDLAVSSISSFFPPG

B1: M103205H795-SG166/M103202L889-SK1 (antibody, human IgG1, kappa)
heavy: QVTLKESGPVLVKPTETLTLTCTVSGIDLSHDDISWVRQAPGKGLEWVGIISYAGSTYYASWAKGRLTISKDTSKNQVVLTMTNMDPVDTATYYCARGVPAYSHGGDLWGQGTLVTVSSASTKGPSVFPLAPSSKSTSGGTAALGCLVKDYFPEPVTVSWNSGALTSGVHTFPAVLQSSGLYSLSSVVTVPSSSLGTQTYICNVNHKPSNTKVDKKV[letters of human IgG1 Fc with G237D (EU numbers) not shown]
light: DIVMTQSPATLSLSPGERATLSCTSSQSVYHANWLSWFQQKPGQPPKLLIYWASTLAYGVPSRFSGSGSGTDFTLTISSLQPEDAATYYCAGGYGGGRYAFGQGTKVEIKRTVAAPSVFIFPPSDEQLKSGTASVVCLLNNFYPREAKVQWKVDNALQSGNSQESVTEQDSKDSTYSLSSTLTLSKADYEKHKVYACEVTHQGLSSPVTKSFNRGEC
Turning to B1, the relative binding in assay [1] stood at 5 SG1=100; in assay [2] it was 10 SG1=100; in assay [3] it was 10 SG1=100; in assay [4], 17 SG1=100; in assay [5] it was 8 SG1=100.

B2: M103205H795-SG167/M103202L889-SK1 (antibody, human IgG1, kappa)
heavy: QVTLKESGPVLVKPTETLTLTCTVSGIDLSHDDISWVRQAPGKGLEWVGIISYAGSTYYASWAKGRLTISKDTSKNQVVLTMTNMDPVDTATYYCARGVPAYSHGGDLWGQGTLVTVSSASTKGPSVFPLAPSSKSTSGGTAALGCLVKDYFPEPVTVSWNSGALTSGVHTFPAVLQSSGLYSLSSVVTVPSSSLGTQTYICNVNHKPSNTKVDKKV[letters of human IgG1 Fc with P238Y (EU numbers) not shown]
light: DIVMTQSPATLSLSPGERATLSCTSSQSVYHANWLSWFQQKPGQPPKLLIYWASTLAYGVPSRFSGSGSGTDFTLTISSLQPEDAATYYCAGGYGGGRYAFGQGTKVEIKRTVAAPSVFIFPPSDEQLKSGTASVVCLLNNFYPREAKVQWKVDNALQSGNSQESVTEQDSKDSTYSLSSTLTLSKADYEKHKVYACEVTHQGLSSPVTKSFNRGEC
Take B2: the relative binding in assay [1] stood at 14 SG1=100; in assay [2], 18 SG1=100; in assay [3], 14 SG1=100; in assay [4], 38 SG1=100; in assay [5], 22 SG1=100.

B3: M103205H795-SG168/M103202L889-SK1 (antibody, human IgG1, kappa)
heavy: QVTLKESGPVLVKPTETLTLTCTVSGIDLSHDDISWVRQAPGKGLEWVGIISYAGSTYYASWAKGRLTISKDTSKNQVVLTMTNMDPVDTATYYCARGVPAYSHGGDLWGQGTLVTVSSASTKGPSVFPLAPSSKSTSGGTAALGCLVKDYFPEPVTVSWNSGALTSGVHTFPAVLQSSGLYSLSSVVTVPSSSLGTQTYICNVNHKPSNTKVDKKV[letters of human IgG1 Fc with P238E (EU numbers) not shown]
light: DIVMTQSPATLSLSPGERATLSCTSSQSVYHANWLSWFQQKPGQPPKLLIYWASTLAYGVPSRFSGSGSGTDFTLTISSLQPEDAATYYCAGGYGGGRYAFGQGTKVEIKRTVAAPSVFIFPPSDEQLKSGTASVVCLLNNFYPREAKVQWKVDNALQSGNSQESVTEQDSKDSTYSLSSTLTLSKADYEKHKVYACEVTHQGLSSPVTKSFNRGEC
Take B3: the relative binding came out at 13 SG1=100 in assay [1]; 21 SG1=100 in assay [2]; 16 SG1=100 in assay [3]; 30 SG1=100 in assay [4]; 28 SG1=100 in assay [5].

B4: M103205H795-SG169/M103202L889-SK1 (antibody, human IgG1, kappa)
heavy: QVTLKESGPVLVKPTETLTLTCTVSGIDLSHDDISWVRQAPGKGLEWVGIISYAGSTYYASWAKGRLTISKDTSKNQVVLTMTNMDPVDTATYYCARGVPAYSHGGDLWGQGTLVTVSSASTKGPSVFPLAPSSKSTSGGTAALGCLVKDYFPEPVTVSWNSGALTSGVHTFPAVLQSSGLYSLSSVVTVPSSSLGTQTYICNVNHKPSNTKVDKKV[letters of human IgG1 Fc with P238M (EU numbers) not shown]
light: DIVMTQSPATLSLSPGERATLSCTSSQSVYHANWLSWFQQKPGQPPKLLIYWASTLAYGVPSRFSGSGSGTDFTLTISSLQPEDAATYYCAGGYGGGRYAFGQGTKVEIKRTVAAPSVFIFPPSDEQLKSGTASVVCLLNNFYPREAKVQWKVDNALQSGNSQESVTEQDSKDSTYSLSSTLTLSKADYEKHKVYACEVTHQGLSSPVTKSFNRGEC
Consider B4, for which the relative binding turned out to be 22 SG1=100 in assay [1]; 17 SG1=100 in assay [2]; 16 SG1=100 in assay [3]; 32 SG1=100 in assay [4]; 22 SG1=100 in assay [5].

B5: M103205H795-SG170/M103202L889-SK1 (antibody, human IgG1, kappa)
heavy: QVTLKESGPVLVKPTETLTLTCTVSGIDLSHDDISWVRQAPGKGLEWVGIISYAGSTYYASWAKGRLTISKDTSKNQVVLTMTNMDPVDTATYYCARGVPAYSHGGDLWGQGTLVTVSSASTKGPSVFPLAPSSKSTSGGTAALGCLVKDYFPEPVTVSWNSGALTSGVHTFPAVLQSSGLYSLSSVVTVPSSSLGTQTYICNVNHKPSNTKVDKKV[letters of human IgG1 Fc with P238Q (EU numbers) not shown]
light: DIVMTQSPATLSLSPGERATLSCTSSQSVYHANWLSWFQQKPGQPPKLLIYWASTLAYGVPSRFSGSGSGTDFTLTISSLQPEDAATYYCAGGYGGGRYAFGQGTKVEIKRTVAAPSVFIFPPSDEQLKSGTASVVCLLNNFYPREAKVQWKVDNALQSGNSQESVTEQDSKDSTYSLSSTLTLSKADYEKHKVYACEVTHQGLSSPVTKSFNRGEC
B5: the relative binding in assay [1] worked out at 12 SG1=100; in assay [2] it was 16 SG1=100; in assay [3] it was 15 SG1=100; in assay [4] it was 21 SG1=100; in assay [5], 18 SG1=100.

B6: M103205H795-SG171/M103202L889-SK1 (antibody, human IgG1, kappa)
heavy: QVTLKESGPVLVKPTETLTLTCTVSGIDLSHDDISWVRQAPGKGLEWVGIISYAGSTYYASWAKGRLTISKDTSKNQVVLTMTNMDPVDTATYYCARGVPAYSHGGDLWGQGTLVTVSSASTKGPSVFPLAPSSKSTSGGTAALGCLVKDYFPEPVTVSWNSGALTSGVHTFPAVLQSSGLYSLSSVVTVPSSSLGTQTYICNVNHKPSNTKVDKKV[letters of human IgG1 Fc with S239P (EU numbers) not shown]
light: DIVMTQSPATLSLSPGERATLSCTSSQSVYHANWLSWFQQKPGQPPKLLIYWASTLAYGVPSRFSGSGSGTDFTLTISSLQPEDAATYYCAGGYGGGRYAFGQGTKVEIKRTVAAPSVFIFPPSDEQLKSGTASVVCLLNNFYPREAKVQWKVDNALQSGNSQESVTEQDSKDSTYSLSSTLTLSKADYEKHKVYACEVTHQGLSSPVTKSFNRGEC
B6: the relative binding amounted to 8 SG1=100 in assay [1]; 17 SG1=100 in assay [2]; 20 SG1=100 in assay [3]; 18 SG1=100 in assay [4]; 20 SG1=100 in assay [5].

B7: M103205H795-SG174/M103202L889-SK1 (antibody, human IgG1, kappa)
heavy: QVTLKESGPVLVKPTETLTLTCTVSGIDLSHDDISWVRQAPGKGLEWVGIISYAGSTYYASWAKGRLTISKDTSKNQVVLTMTNMDPVDTATYYCARGVPAYSHGGDLWGQGTLVTVSSASTKGPSVFPLAPSSKSTSGGTAALGCLVKDYFPEPVTVSWNSGALTSGVHTFPAVLQSSGLYSLSSVVTVPSSSLGTQTYICNVNHKPSNTKVDKKV[letters of human IgG1 Fc with S267H (EU numbers) not shown]
light: DIVMTQSPATLSLSPGERATLSCTSSQSVYHANWLSWFQQKPGQPPKLLIYWASTLAYGVPSRFSGSGSGTDFTLTISSLQPEDAATYYCAGGYGGGRYAFGQGTKVEIKRTVAAPSVFIFPPSDEQLKSGTASVVCLLNNFYPREAKVQWKVDNALQSGNSQESVTEQDSKDSTYSLSSTLTLSKADYEKHKVYACEVTHQGLSSPVTKSFNRGEC
Turning to B7, the relative binding in assay [1] stood at 15 SG1=100; in assay [2] it was 13 SG1=100; in assay [3] it was 16 SG1=100; in assay [4], 20 SG1=100; in assay [5], 11 SG1=100.

B8: M103205H795-SG172/M103202L889-SK1 (antibody, human IgG1, kappa)
heavy: QVTLKESGPVLVKPTETLTLTCTVSGIDLSHDDISWVRQAPGKGLEWVGIISYAGSTYYASWAKGRLTISKDTSKNQVVLTMTNMDPVDTATYYCARGVPAYSHGGDLWGQGTLVTVSSASTKGPSVFPLAPSSKSTSGGTAALGCLVKDYFPEPVTVSWNSGALTSGVHTFPAVLQSSGLYSLSSVVTVPSSSLGTQTYICNVNHKPSNTKVDKKV[letters of human IgG1 Fc with V266F (EU numbers) not shown]
light: DIVMTQSPATLSLSPGERATLSCTSSQSVYHANWLSWFQQKPGQPPKLLIYWASTLAYGVPSRFSGSGSGTDFTLTISSLQPEDAATYYCAGGYGGGRYAFGQGTKVEIKRTVAAPSVFIFPPSDEQLKSGTASVVCLLNNFYPREAKVQWKVDNALQSGNSQESVTEQDSKDSTYSLSSTLTLSKADYEKHKVYACEVTHQGLSSPVTKSFNRGEC
Consider B8, for which the relative binding in assay [1] was 31 SG1=100; in assay [2], 14 SG1=100; in assay [3], 17 SG1=100; in assay [4], 27 SG1=100; in assay [5], 16 SG1=100.

B9: M103205H795-SG173/M103202L889-SK1 (antibody, human IgG1, kappa)
heavy: QVTLKESGPVLVKPTETLTLTCTVSGIDLSHDDISWVRQAPGKGLEWVGIISYAGSTYYASWAKGRLTISKDTSKNQVVLTMTNMDPVDTATYYCARGVPAYSHGGDLWGQGTLVTVSSASTKGPSVFPLAPSSKSTSGGTAALGCLVKDYFPEPVTVSWNSGALTSGVHTFPAVLQSSGLYSLSSVVTVPSSSLGTQTYICNVNHKPSNTKVDKKV[letters of human IgG1 Fc with S267L (EU numbers) not shown]
light: DIVMTQSPATLSLSPGERATLSCTSSQSVYHANWLSWFQQKPGQPPKLLIYWASTLAYGVPSRFSGSGSGTDFTLTISSLQPEDAATYYCAGGYGGGRYAFGQGTKVEIKRTVAAPSVFIFPPSDEQLKSGTASVVCLLNNFYPREAKVQWKVDNALQSGNSQESVTEQDSKDSTYSLSSTLTLSKADYEKHKVYACEVTHQGLSSPVTKSFNRGEC
As for B9, the relative binding in assay [1] is 24 SG1=100; in assay [2], 13 SG1=100; in assay [3], 14 SG1=100; in assay [4], 21 SG1=100; in assay [5] it was 12 SG1=100.
